# Measurements as given in PubChem BioAssay AID1347120 (National Center for Advancing Translational Sciences (NCATS), 2019).
# Out of some 390,000 compounds screened, about 930 (0.24%) were called active. Inconclusive means that the source gave no clear call. Such entries were picked first, then a sample of the others. Calls come from the whole dose curve; as a rule, active = well fitted activation curve with a large enough effect; inconclusive = small, poorly fitted or top-dose-only effect; inactive = no such curve, though single readings can be large or run the other way. A potency beside an inconclusive call is a rough fit, not a confirmed value.
# Test: qHTS for Suppressors of FUS Proteinopathy: Primary screen using FUS-linked yeast assay; note: nearly all actives have a fitted effect of over 55% in size;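 for growth rescue (activation): plate controls were DMSO vehicle for no effect and reference control for full effect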
# Conditions: S. cerevisiae FUS-expressing, OD600, 24 h; Potency: growth rescue; growth rescue (activation): at 76.6 µM (top of the series)
# Method in brief: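 Read-out: OD at 600 nm after 24hr at 30C, reporting rescue of FUS-induced yeast toxicity. Cells at OD 0.005 in galactose (2%) minimal medium; compounds tested in a dilution series; CP55940 titration from 92uM final as control.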
# Potency is the fitted concentration of half-maximal effect; tags give direction and shape of the fitted curve.
SMILES,Potency,growth rescue (activation)
CCCN(CCC)C(=O)c1cc(-c2ccc3c(c2)OCO3)nc2ccccc12,"inconclusive: 22.4 µM [activator, partial curve, poor fit]",
CCCNC(=S)N1CCC(C(=O)c2ccc(F)cc2)CC1,,inactive: 8.36%
O=C(c1cccc(N2C(=O)C3CC=CCC3C2=O)c1)N1CCCc2ccccc21 (configuration not stated),"inconclusive: 25.1 µM [activator, partial curve, poor fit]",
CC(C)c1ccc(C(=O)OCC(=O)Nc2cccc(S(=O)(=O)NC3=NCCC3)c2)cc1,"inconclusive: 28.2 µM [activator, single point]",
COc1ccccc1NC(=O)c1ccc(S(=O)(=O)N2CCC(C)CC2)cc1,"inconclusive: 28.2 µM [activator, partial curve, poor fit]",
CCOc1ccc(NC(=O)c2c(NCc3cccnc3)sc3c2CCC(C)C3)cc1 (configuration not stated),"inconclusive: 50.1 µM [activator, single point]",
O=C(Cc1ccc(Br)cc1)Nc1cccc(S(=O)(=O)N2CCCCC2)c1,"inconclusive: 39.8 µM [activator, single point]",
CSCSC1=C(C#N)C(c2ccccc2Cl)C(C(C)=O)=C(C)N1 (configuration not stated),,inactive: 22.2%
CC(=O)N1CCN(c2ccccc2NC(=O)c2cc(Br)ccc2Cl)CC1,"inconclusive: 7.08 µM [activator, single point]",
Cc1cc(=O)n(Cc2ccc(F)cc2Cl)c2c1c(C)nn2C,,inactive: -4.24%
CC(C)c1ccc(-c2noc(SCC(=O)N3CCCCC3C)n2)cc1 (configuration not stated),,inactive: 41.8%
CC(=O)Nc1cc(-c2ccccc2F)cn2c(-c3cccc(C(F)(F)F)c3)cnc12,"inconclusive: 28.2 µM [activator, single point]",
O=C(Nc1cccc(C(=O)O)c1)/C(=C\C=C\c1ccccc1)NC(=O)c1ccccc1,"inconclusive: 35.5 µM [activator, single point]",
COC(=O)c1ccc(Sc2ccc(Cl)cc2)c(N)c1,,inactive: 16.5%
Cc1ccc(S(=O)(=O)NNC(=O)c2sc3nc(C)cc(C)c3c2-n2cccc2)cc1,"inconclusive: 25.1 µM [activator, single point]",
COc1ccc(S(=O)(=O)N2CCN(C(=O)CNC(=O)c3ccc4c(c3)OCO4)CC2)cc1,,inactive: 5.15%
COc1ccc(-c2nc3sc(CCNC(=O)Cc4ccc(F)cc4)c(C)n3n2)cc1,,inactive: 5.83%
CCC(C)CNC(=O)c1cn(C(C)c2ccccc2)nn1 (configuration not stated),,inactive: -1.75%
Oc1ccc(C[C@H]2CNC(=S)N2CC2CCCN2C[C@H](Cc2ccccc2)N2C[C@H](Cc3ccc(O)cc3)N(CC3CCCCC3)C2=S)cc1 (some centres not stated),"inconclusive: 28.2 µM [activator, partial curve, poor fit]",
Cc1cc(=O)oc2cc(NC(=O)CCC(=O)O)ccc12,,inactive: 16.7%
CCn1c(COc2ccc(C)cc2)nnc1SCc1cccc(C(F)(F)F)c1,"inconclusive: 35.5 µM [activator, single point]",
CCN1C(=O)[C@H]2[C@@H](c3ccc(-c4ccc(OC)cc4)cc3)N[C@@](Cc3ccccc3)(C(=O)OC)[C@H]2C1=O,,inactive: -1.62%
Clc1ccc(Sc2ccccn2)cc1,,inactive: -7.06%

SMILES,Potency,growth rescue (activation)
O=C(c1ccccc1[N+](=O)[O-])N(CCc1ccccc1)Cc1ccccc1,"inconclusive: 22.4 µM [activator, partial curve, poor fit]",
CC(=O)c1csc(CS(=O)(=O)c2ccccn2)n1,,inactive: 6.72%
CCc1ccc(CN(C)C(=O)c2cc(COc3cccc4cnccc34)on2)cc1,"inconclusive: 17.8 µM [activator, partial curve, poor fit]",
O=S(=O)(c1ccc(F)cc1)N1CN(Cc2ccco2)c2nc3ccccc3nc21,active: 15.8 µM,
CSCCC(NC(=O)c1ccco1)C(=O)NCC(c1ccccc1)N(C)C (configuration not stated),"inconclusive: 50.1 µM [activator, single point]",
COc1ccc2cc(C3CC(c4ccco4)=NN3C(=O)CCC(=O)O)c(Cl)nc2c1 (configuration not stated),"inconclusive: 25.1 µM [activator, partial curve]",
O=C(O)C1CC=CCC1C(=O)NCc1ccc2c(c1)OCO2 (configuration not stated),"inconclusive: 11.2 µM [activator, single point]",
CC(C)Cc1nn2c(=O)cc(COC(=O)CNC(=O)c3ccc(C(C)(C)C)cc3)nc2s1,"inconclusive: 5.01 µM [activator, full curve]",
CCC1(CC)C(=O)NC(=O)NC1=Nc1cccc(OC)c1,,inactive: -32.2%
Clc1cc2nc3ccccn3c2cc1Cl,"inconclusive: 2 µM [activator, full curve]",
COc1cccc(N2CCN(C(=O)c3cc4c(s3)-c3c(C)cccc3OC4)CC2)c1,"inconclusive: 44.7 µM [activator, single point]",
Cc1cc(NC(=O)C(C)Sc2nc(-c3ccccc3)cc(=O)[nH]2)no1 (configuration not stated),"inconclusive: 25.1 µM [activator, partial curve, poor fit]",
CCOc1ccc(NC(=O)CN(c2cccc(C(F)(F)F)c2)S(C)(=O)=O)cc1,,inactive: 29.1%
COc1cccc(CNC(=O)C2CCCN(S(=O)(=O)c3c(C)noc3/C=C/N(C)C)C2)c1 (configuration not stated),"inconclusive: 28.2 µM [activator, single point]",
CN(CCc1ccccc1)C(=O)c1ccc(NC(=O)Cc2ccc(NC(=O)C3CCN(C(=O)C4CC4)CC3)cc2)cc1,"inconclusive: 50.1 µM [activator, single point]",
COc1ccc(CNC(=O)c2cc3cc4ccc(C)cc4nc3o2)cc1,,inactive: -13.1%
O=C(Cc1ccccc1)Nc1c(C(=O)c2ccccc2)oc2ccccc12,,inactive: -5.97%
COc1ccc(C(CCN(Cc2ccc(OC)c(OC)c2)C(C)=O)c2ccccc2)cc1 (configuration not stated),"inconclusive: 35.5 µM [activator, single point]",
Cc1[nH]c2ccccc2c1C(=O)C(=O)N1CCN(c2cccc(Cl)c2)CC1,"inconclusive: 28.2 µM [activator, partial curve]",
CC(C)N(C(=O)Cn1cc(S(=O)(=O)CC(=O)NCc2ccc(F)cc2)c2ccccc21)C(C)C,"inconclusive: 8.91 µM [activator, partial curve]",
CN(CC(=O)Nc1cccc(F)c1)C(=O)c1cc(-c2ccco2)nc2ccccc12,"inconclusive: 39.8 µM [activator, partial curve, poor fit]",
CC(C)Oc1ccc(C(=O)N2CCC(c3nc4ccccc4o3)CC2)cc1,,inactive: 29.8%
CCOc1ccccc1CNC(=O)CCc1c(C)nn(-c2ccc(N3CCCCC3)nn2)c1C,,inactive: 37.3%

SMILES,Potency,growth rescue (activation)
CCN(CC(=O)Nc1ccccc1OC)Cc1csc(CC(=O)Nc2ccc(C)cc2)n1,,inactive: 19.4%
Cc1ccc(-n2ncc3c(=O)n(CC(=O)N4CCN(c5ccccc5F)CC4)cnc32)cc1C,"inconclusive: 11.2 µM [activator, single point]",
O=C(Nc1ccc(N2CCN(C(=O)c3ccccc3)CC2)cc1)c1cc([N+](=O)[O-])ccc1N1CCOCC1,active: 35.5 µM,
O=C1CSC2(C(=O)N(Cc3ccccc3F)c3ccccc32)N1c1cccc(C(F)(F)F)c1 (configuration not stated),,inactive: 22.2%
COc1ccc(NC(=O)CSCC(=O)N(C)Cc2ccc(Cl)c(Cl)c2)cc1,"inconclusive: 31.6 µM [activator, single point]",
Cc1ccc(NC(=O)Cn2nnc(C(=O)Nc3ccc(C)c(C)c3)c2N)cc1,active: 22.4 µM,
O=c1[nH][nH]c2c1[C@@H](c1ccc(F)cc1)O[C@H](CCc1ccccc1)C2,"inconclusive: 50.1 µM [activator, single point]",
COc1cc(/C=C/c2nc(N)nc(-c3ccccc3O)n2)cc(OC)c1OC,,inactive: 44.9%
COc1ccc(S(=O)(=O)Nc2ccc3c(c2)C(=O)N([C@H](C)CO)C[C@H](C)[C@@H](CN(C)C(=O)Nc2ccc4c(c2)OCO4)O3)cc1,"inconclusive: 28.2 µM [activator, single point]",
CC1=C(C(=O)OCC2CCCO2)C(c2ccc(C)cc2)C2=C(CCCC2=O)N1 (configuration not stated),,inactive: 4.59%
COc1ccc(/C=N/NC(=O)c2cc(-c3ccc(C)cc3C)nc3ccccc23)cc1COC(C)=O,"inconclusive: 12.6 µM [activator, partial curve, poor fit]",
Cc1cccc(COCC(CC(C)C)N2CCN(C(=O)c3ccc(C(C)(C)C)cc3)CCC2=O)c1 (configuration not stated),"inconclusive: 17.8 µM [activator, partial curve, poor fit]",
CCc1ccc(C(=O)CCC(=O)Nc2cccc(S(=O)(=O)N3CCCCC3)c2)cc1,,inconclusive: -52.7% [activator]
O=C(Cn1c(=O)n(Cc2ccco2)c(=O)c2oc3ccccc3c21)Nc1ccc(F)c(Cl)c1,,inactive: -0.768%
CN1C(=O)C(=O)/C(=C(/O)c2ccc(Br)cc2)C1c1cccc([N+](=O)[O-])c1 (configuration not stated),"inconclusive: 28.2 µM [activator, partial curve, poor fit]",
Brc1ccccc1C1CC(c2ccccc2)=Nc2ccccc2N1 (configuration not stated),,inactive: 2.39%
COc1ccc(CCNC(=S)c2ccccc2)cc1OC,"inconclusive: 28.2 µM [activator, partial curve, poor fit]",
c1ccc(-c2cc3ncc4c(n3n2)-c2ccccc2OC4)cc1,,inactive: -2%
CCC(Sc1nc2ccc(N)cc2s1)C(=O)Nc1nccs1 (configuration not stated),"inconclusive: 39.8 µM [activator, partial curve, poor fit]",
Cc1ccc(S(=O)(=O)N(C)C[C@H]2Oc3c(NC(=O)Nc4cccc5ccccc45)cccc3C(=O)N([C@@H](C)CO)C[C@@H]2C)cc1,"inconclusive: 28.2 µM [activator, single point]",
Cc1ccccc1N1CCN(Cc2ccc([N+](=O)[O-])o2)CC1,,inactive: 3.5%
